# Values joined by “and” are separate entries in the source; they are usually repeats but may differ in a detail not shown here. Equal values may be shown once. The whole screen tested about 110,000 compounds, of which about 230 (0.21%) showed an effect of 50% or more. The list shows a part of the results.
# Molecular target: DPAP1 (Plasmodium falciparum, UniProt Q8IIJ9)
# Assay: primary screen, percent inhibition; read by cleavage of a fluorogenic dipeptide substrate; higher = more effect of the substance
# Design: species or system P. falciparum D10 trophozoite lysates; single well
# 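Note: 30 min substrate incubation versus DMSO and 10 µM JCP410 controls.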
# Sequence of DPAP1 (Q8IIJ9 whole entry, looked up): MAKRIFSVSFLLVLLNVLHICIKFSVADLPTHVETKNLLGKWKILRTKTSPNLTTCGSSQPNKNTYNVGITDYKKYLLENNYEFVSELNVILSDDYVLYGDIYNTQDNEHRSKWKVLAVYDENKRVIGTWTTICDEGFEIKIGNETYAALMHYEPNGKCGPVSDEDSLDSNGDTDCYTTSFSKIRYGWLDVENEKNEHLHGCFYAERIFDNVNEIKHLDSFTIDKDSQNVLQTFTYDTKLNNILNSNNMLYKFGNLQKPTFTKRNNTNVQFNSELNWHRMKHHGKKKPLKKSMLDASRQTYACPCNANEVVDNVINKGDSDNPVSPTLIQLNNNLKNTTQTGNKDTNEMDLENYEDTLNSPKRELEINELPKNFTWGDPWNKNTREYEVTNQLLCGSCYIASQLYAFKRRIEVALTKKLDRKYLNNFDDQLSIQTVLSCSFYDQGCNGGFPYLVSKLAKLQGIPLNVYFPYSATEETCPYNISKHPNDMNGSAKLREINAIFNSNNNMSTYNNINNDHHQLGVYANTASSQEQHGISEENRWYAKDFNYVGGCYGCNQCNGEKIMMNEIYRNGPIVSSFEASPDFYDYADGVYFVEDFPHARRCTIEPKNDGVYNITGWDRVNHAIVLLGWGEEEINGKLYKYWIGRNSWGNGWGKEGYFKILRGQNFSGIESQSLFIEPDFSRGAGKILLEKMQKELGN
row,SMILES,% Inhibition @ 10 uM
1,O=C(CN1Cc2ccccc2C1=O)N1CCC2(CC1)OCCO2,1.6%
2,N#CC1=C(N)N=C(S)[C@@H](C(N)=O)[C@@H]1c1ccc(Br)cc1,9.92%
3,CCC(C)C(NC(=O)OCc1ccccc1)C(=O)N[C@@H](CCc1ccccc1)C(=O)C[N+](=O)[O-] (stereo partly shown),2.22%
4,COc1ccc(C2c3c(-c4cc(C)ccc4O)n[nH]c3C(=O)N2Cc2ccco2)cc1OC (stereo not shown),6.85%
5,O=c1c2c(nc3n1CC(O)CS3)-c1ccccc1CC21CCCC1 (stereo not shown),-0.711%
6,c1ccc(-c2nnc3c4ccccc4c4ccccc4c3n2)nc1,-1.82%
7,COCCNC(=S)NCc1ccc2[nH]c(C)cc2c1,1.55%
8,CC(=O)c1cccc(NC(=O)c2c(-c3ccccc3)noc2C)c1,-6.24%
9,CC1(C)Cc2nc(N)c(C#N)cc2CO1,-2.6%
10,Cc1c(C(=O)N2CCCCCC2)oc2ccc3c(c12)C(=O)CC(C)(C)O3,0.0882%
11,COc1ccc(CCNC(=O)c2cc(-c3ccco3)on2)cc1OC,-7.85%
12,CC(C)C[C@H](NC(=O)c1csc(-c2ccccc2[N+](=O)[O-])n1)C(=O)NCC#N,-11%
13,COc1ccc2c(c1)CCC/C2=N\OC(=O)c1ccccc1F,3.16%
14,Cc1nc(N=C(N)N)nc2c(C)cccc12,2.03%
15,CC(C)C(C(=O)Nc1cccc2ccccc12)N1C(=O)c2ccccc2C1=O (stereo not shown),1.33%
16,O=C(Nc1ccc(Cl)c(Cl)c1)c1ccc([N+](=O)[O-])o1,-2.78%
17,FC(F)Oc1ccccc1C1C=C(c2ccc(Cl)cc2)Nc2nnnn21 (stereo not shown),-1.62%
18,CCn1c(=N)n(CCOc2ccccc2C)c2ccccc21,1.29%
19,O=C(NC1(C(F)(F)F)NC(=O)N(c2ccc(F)cc2)C1=O)c1ccco1 (stereo not shown),0.231%
20,Cc1ccc(C(=O)Nc2ccc(-c3nc4ncccc4o3)cc2)cc1C,25.8%
21,O=C(COc1ccccc1)Nc1nc2ccc(Cl)cc2s1,10.9%
22,CCOc1cc(CNCC2CCCN2CC)cc(Cl)c1OCC(N)=O (stereo not shown),0.895%
23,Cc1nc(Sc2ccc(Cl)cc2)c2c3c(sc2n1)CCCC3,-3.92%
24,CCCCOc1ccc(C2C(C#N)=C(N)Oc3c2c(C)nn3-c2ccccc2)cc1OC (stereo not shown),2.8%
25,CC1=C(CCN2CCN(CCOCCO)CC2)C(C)(C)CCC1,-4.75%

row,SMILES,% Inhibition @ 10 uM
1,COc1ccccc1CNC(=O)C1CCCN(c2ncnc3c2sc2cccc(F)c23)C1 (stereo not shown),-6.01%
2,Cc1cc(C)c(S(=O)(=O)N2C(=O)CCC2C(=O)Nc2ccc(Cl)cc2)c(C)c1 (stereo not shown),1.64%
3,CC(C(=O)NCCCc1ccccc1)n1c2ccccc2c2cnn(C)c(=O)c21 (stereo not shown),-0.281%
4,Cc1cccc(N2C(=O)CC(NCc3ccc(S(N)(=O)=O)cc3)C2=O)c1 (stereo not shown),-1.96%
5,Cc1ccc(OCC(=O)Nc2ccc3ccccc3c2)cc1C,6.61%
6,CCCC(=O)Nc1ccc(C(=O)Nc2ccc(F)cc2F)cc1,-2.98%
7,COc1ccc(-c2csc(Nc3ccc(Cl)cc3)n2)cc1F,1.43% and -0.771%
8,CCOC(=O)C1=C(C)OC(N)=C(C#N)C1c1ccc(C)s1 (stereo not shown),-2.2%
9,COc1cc2c(cc1OC)C(c1cccc(F)c1)N(C/C=C(\C)CCC=C(C)C)CC2 (stereo not shown),-1.5%
10,Cc1nc(S)c2c(n1)-c1ccccc1CC21CCCCC1,-2.64%
11,CC1NC2(C(=O)N(Cc3ccccc3Cl)c3ccccc32)C2C(=O)N(Cc3ccccc3)C(=O)C12 (stereo not shown),-5.27%
12,CN1CCN(CCCNC(=O)CCC(=O)N2CC=C(c3c[nH]c4ccccc34)CC2)CC1,-7.26%
13,O=[N+]([O-])c1ccccc1CN1CCC(O)CC1,3.16%
14,CC(C)(C)c1cc(/C=N/O)cc(C(C)(C)C)c1O,-1.45%
15,CCN(C(=O)c1ccc(-c2ccccc2)cc1)c1ccccc1,3.1%
16,Cc1ccc(CSCCNC(=O)CSc2ccccc2)cc1,-2.76%
17,O=C(Nc1ccccc1O)c1nc[nH]n1,5.73%
18,O=C(O)CC(NC(=O)Cc1ccc(Cl)cc1)c1ccc(F)cc1 (stereo not shown),-1.47%
19,Cc1ccc(NC(=O)c2nc(-c3ccc(Cl)cc3)n3c2CCCCC3)nc1,4.39%
20,C#CCN1C(=O)C(O)(CC(=O)c2ccc3ccccc3c2)c2ccccc21 (stereo not shown),-20.7%
21,CS(=O)(=O)n1nc(-c2cccnc2)nc1NCc1ccccc1,0.558%
22,CCOC(=O)N1CCN(c2ncnc3c2c(-c2ccccc2)cn3-c2cccc(Cl)c2)CC1,7.48%
23,COc1nc2ccccc2nc1CCC(=O)O,-1.72%
24,COCc1ccc2oc(C(=O)O)cc2c1,5.31%
25,O=C(c1cc(S(=O)(=O)N2CCOCC2)cs1)N1CCCC1,1.54%

row,SMILES,% Inhibition @ 10 uM
1,N#CC1=C(N)Oc2[nH]nc(-c3cccs3)c2C1c1ccccc1F (stereo not shown),5.89%
2,OCCN(CCO)CC1CC2C=CC1C2 (stereo not shown),1.62%
3,CCCn1c(CCNC(=O)c2ccccc2)nc2ccccc21,1.5%
4,Cc1ccc(-c2nn(CCC(=O)NC(C)C)c(=O)c3ccccc23)cc1,2.25%
5,Cc1nn(-c2ccccc2)c(-n2cccc2)c1C(=O)NCCCN1CCOCC1,4.95%
6,CCCn1c(=O)c2sccc2n2c(CCCC(=O)N3CC(C)CC(C)C3)nnc12 (stereo not shown),-2.15%
7,Cc1cccc(C(O)(CCN2CCCCC2)c2ccccc2)c1 (stereo not shown),-1.82%
8,CCC(C)Sc1nc2c(c(=O)[nH]c(=O)n2C)n1Cc1ccc(Cl)cc1 (stereo not shown),0.851%
9,Cc1cc(C)nc(NC(=O)c2ccccc2Cl)n1,3.29%
10,O=C(CC(c1ccc(F)cc1)N1Cc2ccccc2C1=O)NCc1ccc(CN2CCOCC2)o1 (stereo not shown),-4.03%
11,CN1CCc2nc(S)c(C#N)c(-c3ccccc3)c2C1,2.45%
12,COCCN1C(=O)c2ccccc2C(C(=O)NCc2ccco2)C1c1cccs1 (stereo not shown),2.19%
13,COc1ccc(OC)c(-n2c(CCC(=O)O)ccc2-c2ccccc2)c1,0.291%
14,COc1ccccc1OCc1ccc(C(=O)NCCN(C)C)o1,-5%
15,COC(=O)c1nc2n(n1)C(c1cc(OC)c(OC)c(OC)c1)C=C(c1cccc(OC)c1)N2 (stereo not shown),-1.62%
16,Cc1nn(C)c2c1c(-c1ccccc1)cc(=O)n2C(C)C(=O)NCc1ccccc1 (stereo not shown),-0.835%
17,Oc1ccc(CN2CCSCC2)cc1,-2.92%
18,CCOC(=O)c1cc2c(=O)n3ccccc3nc2n(C(C)C)/c1=N/C(=O)c1ccncc1,-5.57%
19,CCCCNC(=O)CN(c1ccc(Cl)cc1Cl)S(=O)(=O)c1ccccc1,1.39%
20,COc1ccccc1-c1nn2c(Cn3cnc4ccccc43)nnc2s1,7.5%
21,O=C(CSc1c2c(nc3ccccc13)CCCC2)N1CCCC1,-3.23%
22,Cc1ccc(CSc2nc3cccnc3n2CC(=O)N(C)C2CCCCC2)cc1,0.693%
23,CCCNc1cc(-c2ccccc2)ncn1,-4.49%
24,Cc1cc(C)c(C)c(S(=O)(=O)NCC(=O)N2CCCC2)c1C,-3.37%
25,Cc1ccc2nc(Cl)c3cc(C(=O)NC(C)C)sc3c2c1,-1.7%

row,SMILES,% Inhibition @ 10 uM
1,O=C(O)c1ccccc1C(=O)OCCN1CCOCC1,-0.357%
2,COC(=O)c1ccc(C2c3c(oc4ccc(F)cc4c3=O)C(=O)N2Cc2ccc3c(c2)OCO3)cc1 (stereo not shown),0.415%
3,CCOc1ccc(-c2cc(C(=O)O)c3c(-c4ccccc4)[nH]nc3n2)cc1OC,4.59%
4,COc1ccc(C2C(C(=O)c3cccs3)=C(O)C(=O)N2CCCN(C)C)c(OC)c1 (stereo not shown),0.487%
5,O=C(Nc1ccccc1C(=O)N1CCCC1)c1cccc(F)c1,-3.5%
6,Cc1ccc(CNC(=O)CSc2nnc(C)c3c(C)n(-c4ccccc4)nc23)o1,-4.18%
7,CC(=O)N1CCN(C(=O)N[C@@H](CC(C)C)C(=O)NCC#N)CC1,2.87%
8,COc1cccc(/C=C2/SC(=O)N(CC(=O)N3CCOCC3)C2=O)c1OC,-8.36%
9,CS(=O)(=O)N(CC(=O)Nc1ccc(Oc2ccccc2)cc1)c1ccccc1F,-5.06%
10,Cc1c(CNCC(C)c2ccccc2)c(C(=O)O)c(C)n1Cc1ccc(F)cc1Cl (stereo not shown),-5.49%
11,Oc1ccc(-c2csc(Nc3cccnc3)n2)cc1,-3.5%
12,OCCn1c(-c2ccccc2)cn2c3ccccc3nc12,1.13%
13,CCOC(=O)N1CCN(C(=O)C2c3ccccc3C(=O)N(CC(C)C)C2c2cccs2)CC1 (stereo not shown),1.69%
14,CCn1c2ccccc2c2cc(CN3CCN(c4ccccc4)CC3)ccc21,-3.77%
15,O=C(/C(=C(\O)c1ccccc1)[n+]1ccc2ccccc2c1)c1ccccc1,0.658%
16,CC1CCN(S(=O)(=O)c2cc(C(=O)O)ccc2Cl)CC1,0.177%
17,CC(=O)N(CN1C(=O)C2CC=CCC2C1=O)c1cccc(Cl)c1 (stereo not shown),0.751%
18,CCN1CCC(N(Cc2cccc(OC)c2)C(=O)NC23CC4CC(CC(C4)C2)C3)CC1,3.7%
19,COc1cccc(/C=C2\CCCC3=C2OC(N)=C(C#N)C3c2cccc(OC)c2)c1 (stereo not shown),-4.68%
20,O=C(CN1C(=O)c2ccccc2C1=O)Nc1ccc(Br)cc1,5.04%
21,COc1cccc(NC(=O)c2ccc(Br)cc2)c1,-3.26%
22,CC(CNC(=O)c1ccc(Cl)cc1)NC(=O)c1ccc(Cl)cc1 (stereo not shown),-3.21%
23,CCC(C)NC(=O)c1cn(CC)c(=O)c2cc(OC)c(OC)cc12 (stereo not shown),-2.49%
24,Cc1ccc(-c2c(C(=O)NCC3COc4ccccc4O3)oc(=O)c3ccccc23)cc1 (stereo not shown),5.1%
25,CCCNc1nc(OC)nc(OC)n1,-4.05%

# Source: PMC6919601, “Identification of Plasmodium dipeptidyl aminopeptidase allosteric inhibitors by high throughput screening” (PLoS ONE, 2019)
